# Data: PubChem BioAssay AID504333 (National Center for Advancing Translational Sciences (NCATS), 2011)
# The whole screen tested about 360,000 compounds, of which about 16,000 (4.4%) were called active. This list was built around the results that the source calls inconclusive (neither active nor inactive); the mix of calls is not that of the screen. Calls follow the shape of the dose curve; as a rule, active = well fitted inhibition curve with a large enough effect; inconclusive = small, poorly fitted or top-dose-only effect; inactive = no such curve, though single readings can be large or run the other way. Potencies of inconclusive entries are doubtful fits and often do not repeat.
# Target: Bromodomain adjacent to zinc finger domain protein 2B (Homo sapiens) (UniProt Q9UIF8)
# UniProt Q9UIF8, sequence (Q9UIF8 whole entry, looked up, the tested form may be a part): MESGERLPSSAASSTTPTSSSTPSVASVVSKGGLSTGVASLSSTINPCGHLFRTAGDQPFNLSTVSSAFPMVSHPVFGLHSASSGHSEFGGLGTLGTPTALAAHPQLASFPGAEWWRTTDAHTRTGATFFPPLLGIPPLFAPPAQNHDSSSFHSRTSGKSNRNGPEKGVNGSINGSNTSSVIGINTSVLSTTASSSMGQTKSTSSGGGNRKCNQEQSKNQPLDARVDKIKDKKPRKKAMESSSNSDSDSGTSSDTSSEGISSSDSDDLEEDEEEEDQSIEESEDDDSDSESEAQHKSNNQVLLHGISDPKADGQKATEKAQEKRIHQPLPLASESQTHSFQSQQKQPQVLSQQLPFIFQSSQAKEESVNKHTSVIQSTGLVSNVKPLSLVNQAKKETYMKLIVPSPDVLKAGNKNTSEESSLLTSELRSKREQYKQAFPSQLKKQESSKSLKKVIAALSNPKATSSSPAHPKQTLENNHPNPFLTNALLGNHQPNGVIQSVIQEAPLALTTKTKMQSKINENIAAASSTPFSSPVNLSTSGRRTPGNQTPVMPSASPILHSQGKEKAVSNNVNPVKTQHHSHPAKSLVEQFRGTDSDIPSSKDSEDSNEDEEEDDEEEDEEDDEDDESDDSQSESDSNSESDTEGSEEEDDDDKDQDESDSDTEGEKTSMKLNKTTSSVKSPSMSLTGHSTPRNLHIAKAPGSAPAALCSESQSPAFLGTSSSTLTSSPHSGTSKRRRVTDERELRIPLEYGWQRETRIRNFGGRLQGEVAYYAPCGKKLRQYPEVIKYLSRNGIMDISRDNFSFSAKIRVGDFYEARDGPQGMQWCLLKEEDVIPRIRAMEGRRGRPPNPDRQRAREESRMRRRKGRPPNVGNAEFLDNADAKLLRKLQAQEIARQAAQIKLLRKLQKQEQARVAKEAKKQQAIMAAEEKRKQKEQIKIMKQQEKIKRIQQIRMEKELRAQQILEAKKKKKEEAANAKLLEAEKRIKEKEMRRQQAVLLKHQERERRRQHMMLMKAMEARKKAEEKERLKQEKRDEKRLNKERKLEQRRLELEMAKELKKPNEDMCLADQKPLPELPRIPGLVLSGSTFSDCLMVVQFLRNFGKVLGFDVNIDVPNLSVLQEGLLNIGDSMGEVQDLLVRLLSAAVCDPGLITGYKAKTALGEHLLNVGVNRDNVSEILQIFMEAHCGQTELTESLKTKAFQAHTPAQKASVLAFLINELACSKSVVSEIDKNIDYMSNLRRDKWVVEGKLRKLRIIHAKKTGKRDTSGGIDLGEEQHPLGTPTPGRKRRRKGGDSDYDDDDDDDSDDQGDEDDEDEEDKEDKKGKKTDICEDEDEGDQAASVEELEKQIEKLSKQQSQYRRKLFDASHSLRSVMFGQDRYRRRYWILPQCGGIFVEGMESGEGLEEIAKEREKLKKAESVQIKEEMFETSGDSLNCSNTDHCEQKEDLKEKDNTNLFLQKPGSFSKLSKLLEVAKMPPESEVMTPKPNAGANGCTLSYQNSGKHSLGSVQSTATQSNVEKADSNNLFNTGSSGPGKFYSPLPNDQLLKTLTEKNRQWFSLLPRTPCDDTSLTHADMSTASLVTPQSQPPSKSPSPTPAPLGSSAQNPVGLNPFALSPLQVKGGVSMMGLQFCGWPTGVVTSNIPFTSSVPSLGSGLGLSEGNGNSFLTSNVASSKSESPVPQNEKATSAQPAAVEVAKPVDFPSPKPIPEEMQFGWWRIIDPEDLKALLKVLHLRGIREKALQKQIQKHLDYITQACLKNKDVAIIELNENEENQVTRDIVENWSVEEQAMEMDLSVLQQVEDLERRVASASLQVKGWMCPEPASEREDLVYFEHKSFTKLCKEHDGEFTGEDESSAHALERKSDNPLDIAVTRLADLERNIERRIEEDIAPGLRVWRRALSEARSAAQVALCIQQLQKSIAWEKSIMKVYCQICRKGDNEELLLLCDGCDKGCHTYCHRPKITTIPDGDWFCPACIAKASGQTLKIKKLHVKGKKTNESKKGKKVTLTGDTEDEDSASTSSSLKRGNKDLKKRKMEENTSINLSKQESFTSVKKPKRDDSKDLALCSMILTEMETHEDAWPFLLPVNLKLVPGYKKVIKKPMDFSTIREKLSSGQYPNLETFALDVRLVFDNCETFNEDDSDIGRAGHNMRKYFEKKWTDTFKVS
# Test: qHTS Assay for Inhibitors of BAZ2B; also: nearly all actives have a fitted effect of over 60% in size
# Details: AlphaScreen BAZ2B-H3K14Ac peptide displacement; series mostly up to 114 µM
# Procedure, shortened: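 In this displacement format the biotinylated H3(5-23) peptide acetylated at Lys14 serves as ligand at 50 nM, with BAZ2B at 50 nM in PBS pH 7.4 containing 0.01% Tween-20. Donor and acceptor beads are 10 ug/mL final.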
# Potency is read from the fitted curve at half-maximal effect; tags tell the direction and shape of the fitted curve.
row,SMILES,Potency
1,O=C(N/N=C/c1ccccn1)c1ccncc1,active: 15.8 µM
2,Cc1c(C(=O)N2CCCCC2)c(S(=O)(=O)N2CCN(c3ccccc3F)CC2)c(C)n1C,"inconclusive: 79.4 µM [inhibitor, single point]"
3,O=[N+]([O-])c1cccc(/C=N/Nc2ncc(Br)cn2)c1,inactive
4,Cc1ccc(NC(=O)Nc2nnc(N3CCCCC3)s2)c(C)c1,inactive
5,COc1ccc(-c2nc(NC(=O)C3CC(=O)N(Cc4ccco4)C3)sc2C)cc1 (stereo not given),"inconclusive: 89.1 µM [inhibitor, single point]"
6,O=C1N(Cc2cccc(Cl)c2)C[C@@H]2C[C@@H](c3cccn3-c3ccccn3)N3CCC[C@@]123,"inconclusive: 79.4 µM [inhibitor, single point]"
7,CN1CCN(CC(=O)N(Cc2c(C#N)c3ccccc3n2C)c2ccccc2)CC1,inactive
8,COCCN1CCc2[nH]c(=S)[nH]c(=O)c2C1,"inconclusive: 89.1 µM [inhibitor, single point]"
9,Cn1c2c(c(=O)[nH]c1=O)C(c1ccc(O)cc1)C1=C(N2)c2ccccc2C1=O (stereo not given),inactive
10,COc1ccc(NC(=O)N2CCc3c(sc4c3CCCC4)C2c2ccc(F)cc2)cc1 (stereo not given),"inconclusive: 28.2 µM [inhibitor, full curve]"
11,COc1ccc(N2CCN(C(=O)c3ccc(NS(=O)(=O)c4ccc(F)c(F)c4)cc3)CC2)cc1,active: 50.1 µM
12,COc1ccc(NCc2ccc(OC)c(Cn3ccnc3)c2)c(OC)c1,active: 50.1 µM
13,NS(=O)(=O)c1cccc(NC(=O)Nc2ccccc2)c1,inactive
14,CC(=O)c1c(C)oc2ccc(N(C(=O)Oc3ccccc3)S(=O)(=O)c3ccc(Br)cc3)cc12,inactive
15,COc1ccc(-n2ccnc2SCC(=O)Nc2ccccc2)cc1,"inconclusive: 70.8 µM [inhibitor, single point]"
16,COc1ccc(C)cc1NC(=O)CN1CCN(c2ccc(F)cc2)CC1,"inconclusive: 50.1 µM [inhibitor, partial curve]"
17,CCCC(=O)N(c1ccc2oc(-c3ccccc3)c(C(=O)OCC)c2c1)S(=O)(=O)c1ccc(C)cc1,inactive
18,CCN(CC#CCC1(O)c2ccccc2-c2ccccc21)CCO,"inconclusive: 89.1 µM [inhibitor, single point]"
19,CCCCCC(C)NC(=O)CN1C(=O)NC(C)(c2ccc3ccccc3c2)C1=O (stereo not given),"inconclusive: 44.7 µM [inhibitor, partial curve]"
20,CCOc1cccc(/C=N/NC(=O)c2cccnc2)c1O,active: 31.6 µM
21,Cc1ccc(NC(=O)Cn2c(=O)n(-c3ccc(CC(=O)NCC4CCCO4)cc3)c(=O)c3ccccc32)cc1 (stereo not given),inactive
22,Cc1ccc(OCC(=O)NCCc2c[nH]c3ccccc23)cc1,"inconclusive: 89.1 µM [inhibitor, single point]"
23,Cc1ccc(N2CCN(C(=O)c3nn(C)c4c3CS(=O)(=O)c3ccccc3-4)CC2C)cc1 (stereo not given),"inconclusive: 50.1 µM [inhibitor, partial curve]"
24,Cn1cccc1/C=C1\SC(=S)N(NC(=O)c2ccccc2Cl)C1=O,"inconclusive: 28.2 µM [inhibitor, full curve]"

row,SMILES,Potency
1,Cc1oc(-c2cccc(Cl)c2)nc1CN1CCC(C(=O)NCc2ccco2)CC1,"inconclusive: 79.4 µM [inhibitor, single point]"
2,CCCn1cc(SCC(=O)Nc2nnc(C)s2)c2ccccc21,inactive
3,CCS(=O)(=O)c1c(Nc2ccc(F)c(Cl)c2)sc(C(=O)c2ccccc2)c1N,"inconclusive: 22.4 µM [inhibitor, full curve]"
4,O=[N+]([O-])c1ccc(CN2CCN(c3ccc([N+](=O)[O-])cc3)CC2)cc1,active: 25.1 µM
5,Cc1cccc(NC(=O)C(Cc2ccccc2)c2nn[nH]n2)c1C (stereo not given),"inconclusive: 89.1 µM [inhibitor, single point]"
6,COc1ccccc1NC(=O)CN1C(=O)C(c2ccc(F)cc2)=NC1(C)C,inactive
7,Cc1c(CNCCCc2ccccc2)c(C(=O)O)c(C)n1Cc1ccc(Cl)cc1,"inconclusive: 17.8 µM [inhibitor, full curve, poor fit]"
8,CCOC(=O)NNc1nncc2ccccc12,inactive
9,CN(C)c1oc(-c2ccco2)nc1S(=O)(=O)c1ccc(Br)cc1,"inconclusive: 50.1 µM [inhibitor, partial curve]"
10,CCCC12C(=O)C(C)(C(c3ccccc3)=C1c1ccccc1)C1C(=O)N(c3ccc(C)cc3)C(=O)C12 (stereo not given),"inconclusive: 63.1 µM [inhibitor, partial curve, poor fit]"
11,Cc1ccc(NC(=O)COC(=O)CSC(=S)N2CCOCC2)cc1,inactive
12,CC(c1ccccc1)N1C(=O)c2cccnc2C1=O (stereo not given),"inconclusive: 89.1 µM [inhibitor, single point]"
13,CNC(=O)c1cc(C(=O)c2ccc(Cl)cc2)c[nH]1,"inconclusive: 56.2 µM [inhibitor, partial curve]"
14,COc1ccc2nc(N=Nc3ccc(N(C)C)cc3)sc2c1,"inconclusive: 35.5 µM [inhibitor, full curve]"
15,OCCN(CC#CCC(O)(c1ccccc1)C1CCCC1)CCO (stereo not given),inactive
16,Cc1cc(C)c(S(=O)(=O)NCc2ccc3c(c2)cc(C)n3C)c(C)c1,"inconclusive: 44.7 µM [inhibitor, partial curve]"
17,Cc1nc2c(C)cccc2c(SC(=N)N)c1CC=C(Cl)Cl,"inconclusive: 56.2 µM [inhibitor, partial curve]"
18,O=C(N/N=C/c1cc([N+](=O)[O-])ccc1O)c1cccc2ccccc12,inactive
19,CC(CCc1ccccc1)NC(=O)CN1CCN(c2ccc(O)cc2)CC1 (stereo not given),"inconclusive: 31.6 µM [inhibitor, partial curve]"
20,CN(C)CCCNc1nc2sc3c(c2c(=O)n1CCc1ccccc1)CCCCC3,"inconclusive: 50.1 µM [inhibitor, partial curve]"
21,O=C(O)CCN1C(=O)/C(=C\c2cccc(OCc3ccccc3)c2)SC1=S,inactive
22,O=[N+]([O-])c1cccc(S(=O)(=O)c2ccc(N3CCCCC3)c([N+](=O)[O-])c2)c1,"inconclusive: 8.91 µM [inhibitor, full curve]"
23,COc1ccc(-c2cc(C(F)(F)F)nc(SCC(=O)NCc3ccc(F)cc3)n2)cc1,"inconclusive: 39.8 µM [inhibitor, single point]"
24,COc1ccc(C2NCCc3c2[nH]c2ccccc32)cc1COc1ccc(F)cc1 (stereo not given),active: 35.5 µM

row,SMILES,Potency
1,N#C/C(=N\Nc1ccc(Cl)cc1)C(N)=S,"inconclusive: 39.8 µM [inhibitor, partial curve]"
2,Cc1ccc(NC(=O)CN2C(=O)C(C)(C)c3cc(S(=O)(=O)N4CCCCC4)ccc32)c(Br)c1,inactive
3,CCN1CCN(Cc2ccc(NC(=O)c3ccc(C)c(NC(=O)c4nccn4C)c3)cc2C(F)(F)F)CC1,inactive
4,CC(=O)Oc1c(C)c(OC(C)=O)c2c(c1C(C)=O)OC1CC(=O)C(C(C)=O)=C(O)C21C (stereo not given),"inconclusive: 89.1 µM [inhibitor, single point]"
5,CCc1ccc(N=c2c([N+](=O)[O-])nn(-c3ccccc3)n2O)cc1,active: 31.6 µM
6,CC(=O)NC(CCCNC(=S)NC1CCCCC1)C(=O)O (stereo not given),inactive
7,CCOC(=O)C1CCCCN1Cc1cccc(C(F)(F)F)c1 (stereo not given),"inconclusive: 12.6 µM [inhibitor, single point]"
8,N#C/C(=C\c1ccc(O)c(O)c1)S(=O)(=O)c1ccccc1,active: 10 µM
9,COc1cccc(NC(=O)N2CCC(CN3CCOCC3)CC2)c1,inactive
10,COCCCNC(=S)Nc1cc2oc3ccccc3c2cc1OC,"inconclusive: 56.2 µM [inhibitor, partial curve]"
11,Cc1ccc(CSc2nnc3c(n2)OC2(Nc4ccccc4-3)C(=O)Nc3ccc(F)cc32)cc1 (stereo not given),"inconclusive: 31.6 µM [inhibitor, single point]"
12,CSc1ccc(/C=C/C(=O)OCC(=O)N2CCN(S(=O)(=O)c3ccc(C)cc3C)CC2)cc1,inactive
13,CN(C)S(=O)(=O)c1ccc(-c2csc(N/N=C/c3ccc(O)cc3)n2)cc1,"inconclusive: 35.5 µM [inhibitor, partial curve]"
14,CCN1CCN(c2cc(C)c3cc(NC(=O)c4cc(OC)cc(OC)c4)ccc3n2)CC1,"inconclusive: 39.8 µM [inhibitor, full curve]"
15,C#CCOCCOCCOCCNc1nc(N2CCN(C(=O)[C@H](CCCCN)n3cc([C@@H](N)CO)nn3)CC2)nc(N2CCN(C(=O)[C@H](Cc3ccc(O)cc3)n3cc([C@@H](N)CC(C)C)nn3)CC2)n1,active: 31.6 µM
16,NS(=O)(=O)c1ccc(Nc2nc3ccccc3nc2NS(=O)(=O)c2cccc([N+](=O)[O-])c2)cc1,"inconclusive: 50.1 µM [inhibitor, partial curve]"
17,CCOc1cccc(C(=O)NC(=S)Nc2cccc(NC(=O)c3ccccc3Cl)c2)c1,active: 79.4 µM
18,c1ccc(Cn2nnnc2C(c2cccs2)N2CCc3ccccc3C2)cc1 (stereo not given),"inconclusive: 89.1 µM [inhibitor, single point]"
19,COc1ccc(C(=O)C2CCCN(C(=O)/C=C/c3cnc[nH]3)C2)c(C)c1 (stereo not given),"inconclusive: 79.4 µM [inhibitor, single point]"
20,N#CCSc1ccccc1NC(=O)COc1ccc(-c2nnco2)cc1,"inconclusive: 89.1 µM [inhibitor, single point]"
21,C=CCC1(O)CC(c2ccco2)NC(c2ccco2)C1CCC (stereo not given),active: 50.1 µM
22,CCOC(=O)CCC(NC(=O)CCC(=O)NC(CCC(=O)OCC)C(=O)OCC)C(=O)OCC (stereo not given),inactive
